Assay results as given in PubChem BioAssay AID540317 (National Center for Advancing Translational Sciences (NCATS), 2011).
About 2,200 (0.56%) of roughly 390,000 compounds were called active. Inconclusive results, whose numbers are uncertain, are shown with a selection of clear calls. Calls come from the whole dose curve; as a rule, active = well fitted inhibition curve with a large enough effect; inconclusive = small, poorly fitted or top-dose-only effect; inactive = no such curve, though single readings can be large or run the other way. Potencies of inconclusive entries are doubtful fits and often do not repeat.

What follows are compounds tested against Chromobox protein homolog 1 (Homo sapiens) (UniProt P83916) (assay: HTS for Inhibitors of HP1-beta Chromodomain Interactions with Methylated Histone Tails). Details: AlphaScreen HP1-beta / biotin-H3K9me3 peptide binding; series mostly up to 114 µM.
Summary of the method: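 HP1-beta protein (50 nM final) preincubated 30 min at room temperature with biotinylated H3(1-18)K9me3 peptide (50 nM) in PBS pH 7.4, 0.01% Tween-20, then compound added for 30 min. AlphaScreen streptavidin donor/nickel chelate acceptor beads (10 ug/mL final), 30 min dark, luminescence read.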
Note: nearly all actives have a fitted effect of over 70% in size.
Potency is the fitted concentration of half-maximal effect; tags give direction and shape of the fitted curve.

Chain of UniProt P83916 (P83916 whole entry, looked up): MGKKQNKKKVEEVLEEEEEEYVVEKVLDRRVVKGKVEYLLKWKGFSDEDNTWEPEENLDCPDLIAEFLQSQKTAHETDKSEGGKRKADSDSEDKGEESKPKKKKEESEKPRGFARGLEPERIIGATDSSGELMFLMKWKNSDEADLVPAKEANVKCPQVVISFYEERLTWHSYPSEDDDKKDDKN

Compound	Potency
COc1cc(/C=C/C(=O)c2ccc(NS(=O)(=O)c3ccc(C)cc3)cc2)cc(OC)c1O	inconclusive: 44.7 µM [inhibitor, partial curve]
c1ccc(Nc2nc(NCc3ccco3)c3ccccc3n2)cc1	inconclusive: 79.4 µM [inhibitor, single point]
O=C1C=CC(=O)N1c1ccc(O)cc1	inconclusive: 10 µM [inhibitor, full curve, poor fit]
CN1C(=O)Cc2cc(S(=O)(=O)CCC(=O)Nc3cccc(C(F)(F)F)c3)ccc21	inactive
C=CCn1c(=S)[nH]c2scc(-c3ccco3)c2c1=O	active: 35.5 µM
CC(=O)Nc1ccc(S(=O)(=O)Nc2cccc(-c3ccc(N4CCC(C)CC4)nn3)c2)cc1	inactive
Cn1cc(C(c2ccccc2OCC(=O)O)c2cn(C)c3ccccc23)c2ccccc21	inconclusive: 8.91 µM [inhibitor, full curve, poor fit]
O=C(NOCc1ccccc1)c1ccc(Cl)cc1	inconclusive: 89.1 µM [inhibitor, single point]
COc1ccc(-c2csc(NC(=O)C3CSC4(C)CCC(=O)N34)n2)c(OC)c1 (stereo not drawn)	inconclusive: 79.4 µM [inhibitor, partial curve]
COc1cccc(CN(C)CC(=O)NC(=O)NCc2ccco2)c1	active: 50.1 µM
COc1ccc(NC(=O)c2c3c(nc4ccccc24)CCC3)cc1S(=O)(=O)N1CCOCC1	inactive
Cc1ccc(C(C)(C)C)c(OCCCCN2CCCC2)c1	inconclusive: 56.2 µM [inhibitor, partial curve, poor fit]
COc1ccc(/C=N/NC(=O)CCn2cnc(-c3ccccc3)c2-c2ccccc2)cc1	inconclusive: 17.8 µM [inhibitor, full curve]
C=CCn1nnnc1-c1cccc(Cl)c1	inactive
COc1ccc2oc(=O)cc(CN3CCN(C(=O)c4ccccc4F)CC3)c2c1	inconclusive: 39.8 µM [inhibitor, single point]
C=CCc1cc(Cl)ccc1OCCOCCNC(C)CC (stereo not drawn)	inconclusive: 56.2 µM [inhibitor, single point]
Cc1ccc(S(=O)(=O)Nc2ccc(C(=O)Nc3ccncc3)cc2)cc1	inactive
CCOc1ccc(CNS(=O)(=O)c2ccc3[nH]c4c(c3c2)CCCC4)cc1OC	inconclusive: 70.8 µM [inhibitor, partial curve]
CCN1CCc2c(sc(NC(=S)NC(=O)c3ccccc3)c2C#N)C1	inconclusive: 31.6 µM [inhibitor, partial curve, poor fit]
Cc1cccc(-c2n[nH]c(=S)n2C)c1	inconclusive: 79.4 µM [inhibitor, single point]
CC(=O)NC1C(=O)N(CCN2CCOCC2)c2ccc(C)cc21 (stereo not drawn)	inconclusive: 12.6 µM [inhibitor, full curve]
Cc1ccc2c(c1)C(=O)C(=O)N2CCOc1ccccc1	inconclusive: 50.1 µM [inhibitor, partial curve]
c1ccc(-c2ccccc2OCCCN2CCCC2)cc1	inconclusive: 70.8 µM [inhibitor, single point]

Compound	Potency
Cc1sc2nc(CN3CCCCC3)nc(Nc3ccc4c(c3)OCCO4)c2c1C	inactive
Cc1ccccc1CC(=O)NC1CCN(C)CC1	inactive
Cc1ccc(Nc2c([N+](=O)[O-])cc(C(=O)N3CC(=O)Nc4ccccc43)cc2[N+](=O)[O-])c(C)c1	inconclusive: 17.8 µM [inhibitor, full curve]
O=C(CC1Sc2ncnn2C1=O)Nc1ccc(Br)cc1 (stereo not drawn)	inconclusive: 44.7 µM [inhibitor, partial curve]
COc1cccc(Nc2ccc([N+](=O)[O-])c3nonc23)c1	inconclusive: 44.7 µM [inhibitor, partial curve]
Cc1ccc(-c2nc3ccccn3c2Nc2ccccc2C)o1	inconclusive: 70.8 µM [inhibitor, partial curve]
COc1cc(CNc2ccc(N3CCN(C(C)=O)CC3)cc2)ccc1OCc1ccccc1	active: 44.7 µM
CC(C)CN1CCN(Cc2cc3ccccc3[nH]2)CC1CCO (stereo not drawn)	inactive
COc1ccc(OC)c(S(=O)(=O)N2CCC(C(=O)Nc3cccc(C(F)(F)F)c3)CC2)c1	inconclusive: 63.1 µM [inhibitor, single point]
COc1ccc(C2=CC3=C(Br)C(=O)C(C)(OC(=O)c4ccco4)C(=O)C3=CO2)cc1 (stereo not drawn)	inconclusive: 50.1 µM [inhibitor, partial curve, poor fit]
O=C(CN1CCSCC1)N/N=C/c1ccccc1F	inconclusive: 56.2 µM [inhibitor, partial curve, poor fit]
O=C(CSC1=NCCN1)NC(c1ccccc1)c1ccccc1	inconclusive: 89.1 µM [inhibitor, single point]
Cc1cc(OC(=O)c2ccc(S(=O)(=O)N3CCOCC3)cc2)c([N+](=O)[O-])c(=O)[nH]1	inactive
Cc1cc(=O)[nH]c(N2CCN(c3ccc(Cl)cc3)CC2)n1	inactive
O=C1CSC(c2ccc([N+](=O)[O-])cc2)N1c1ccccc1 (stereo not drawn)	inactive
O=C1[C@@H]2C(c3cccnc3)=NO[C@@H]2C(=O)N1c1ccc2ccccc2c1	inconclusive: 50.1 µM [inhibitor, partial curve, poor fit]
Cn1cc(C2CC(c3ccccc3)=NN2C(=O)c2ccccc2)c2ccccc21 (stereo not drawn)	inconclusive: 44.7 µM [inhibitor, partial curve]
Cc1ccccc1Cn1c(O)c(N=NC(=S)Nc2ccccc2F)c2ccccc21	inconclusive: 4.47 µM [inhibitor, full curve, poor fit]
O=C(c1ccco1)N1CCN(C(=O)c2ccc(Cn3cc(Br)cn3)o2)CC1	inactive
CCCCN(Cc1ccccc1)C(=O)C1CCN(Cc2sccc2C)CC1	inconclusive: 31.6 µM [inhibitor, partial curve, poor fit]
COC(=O)c1c(N2C(=O)CC(Sc3ccccc3C(=O)O)C2=O)sc(C)c1C (stereo not drawn)	inconclusive: 89.1 µM [inhibitor, partial curve, poor fit]
COc1cccc2c1C(=O)c1c(O)c3c(c(O)c1C2=O)CC(O)(C(=O)CO)CC3OC1CC(N(C)C)C(O)C(C)O1 (stereo not drawn)	inconclusive: 70.8 µM [inhibitor, partial curve]
CCC(C)c1ccccc1OCCn1ccnc1 (stereo not drawn)	inconclusive: 50.1 µM [inhibitor, partial curve, poor fit]

Compound	Potency
CC1CC(C)(C)CC2(C1)NC(=O)N(CC(=O)Nc1ccc(N3CCCCC3)cc1)C2=O (stereo not drawn)	inconclusive: 56.2 µM [inhibitor, single point]
O=[N+]([O-])c1ccc(N2CCN(Cc3ccncc3)CC2)cc1	inconclusive: 14.1 µM [inhibitor, full curve, poor fit]
COc1ccc(CNC(=O)Cn2nc(C)c3nn(-c4ccc(Cl)cc4)c(C)c3c2=O)cc1	inactive
CC1=NN(c2ccc(Cl)cc2)C(=O)/C1=C\c1cccn1-c1ccc(S(N)(=O)=O)cc1	inconclusive: 0.891 µM [inhibitor, full curve, poor fit]
COc1ccccc1OCCNC(=O)c1cccc(S(=O)(=O)N2CC(C)OC(C)C2)c1 (stereo not drawn)	inactive
O=C(CN1CCCCC1)Nc1c2c(nc3ccccc13)N(c1ccccc1)CC2	inconclusive: 79.4 µM [inhibitor, partial curve]
CC(=O)C1=C(O)C(=O)N(c2ccc(C)cc2)C1c1ccc([N+](=O)[O-])cc1 (stereo not drawn)	inconclusive: 22.4 µM [inhibitor, single point]
Cc1cccc(Cn2c(O)c(N=NC(=S)Nc3ccccc3F)c3ccccc32)c1	inactive
CCOC(=O)Nc1ccc(=O)n(Cc2c(Cl)cccc2Cl)c1	inactive
COc1cc(CNCc2ccc(OC)c3ccccc23)cc(OC)c1OC	inconclusive: 15.8 µM [inhibitor, partial curve, poor fit]
O=c1c2ccccc2[nH]c2ccc(O)cc12	inconclusive: 44.7 µM [inhibitor, partial curve]
Cc1cc(Cl)cc(C)c1OCCNCc1ccccc1	inconclusive: 70.8 µM [inhibitor, single point]
COc1ccc(-c2nc(=N)sn2-c2ccccc2)cc1	active: 14.1 µM
Clc1nssc1=Nc1nncs1	inconclusive: 8.91 µM [inhibitor, full curve, poor fit]
CN1c2ccccc2C(O)=C(C(=S)Nc2ccc(F)c(Cl)c2)S1(=O)=O	inconclusive: 35.5 µM [inhibitor, partial curve]
Cc1ccc(S(=O)(=O)CNC(=S)c2cccc(C)c2)cc1	inconclusive: 100 µM [inhibitor, single point]
COc1cc(Br)c(CNc2cc(C)ccc2C)cc1OC	inconclusive: 14.1 µM [inhibitor, full curve, poor fit]
OC(Cn1cnnc1)c1ccccc1 (stereo not drawn)	active: 22.4 µM
CCCCOc1ccc(CN2CCSCC2)cc1	inconclusive: 17.8 µM [inhibitor, full curve]
CC(C)(C)OC(=O)NCCCC[C@H](NC(=O)c1[nH]cnc1C(=O)N[C@@H](Cc1ccccc1)C(=O)OCc1ccccc1)C(=O)OC(C)(C)C	inactive
Cc1[nH]n(-c2ccccc2)c(=O)c1/C=C1\C=NN=C1c1ccccc1	inconclusive: 17.8 µM [inhibitor, partial curve, poor fit]
O=[N+]([O-])c1cccc(/C=N\N=C2c3ccccc3-c3ccccc32)c1O	inconclusive: 7.94 µM [inhibitor, full curve]
